From PubChem BioAssay AID1468 (National Center for Advancing Translational Sciences (NCATS), 2008)
Screen size: about 280,000 compounds; about 1,100 (0.39%) were called active. This list was built around the results that the source calls inconclusive (neither active nor inactive); the mix of calls is not that of the screen. The call rests on the fitted dose curve; in most records, active means well fitted inhibition curve with a large enough effect; inconclusive means small, poorly fitted or top-dose-only effect, or effect the other way; inactive means flat fitted curve, though single readings scatter. No potency is given beside an inconclusive call; the fits are too rough.

Each molecule was assayed against Microtubule-associated protein tau (Homo sapiens) (UniProt P10636) (assay: qHTS for Inhibitors of Tau Fibril Formation, Fluorescence Polarization). Conditions: K18 P301L tau heparin fibrillization, Alexa594 FP, 6 h; series mostly up to 57.7 µM.
Procedure, shortened: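 Read-out: fluorescence polarization of Alexa 594-labeled tau (0.24 uM), 555 nm excitation, 632 nm emission. Mixtures held 15 uM unlabeled K18 P301L, compound and 20 uM heparin, pH 7 acetate buffer, incubated 6 hr at 37 C.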
Further: nearly all actives have a fitted effect of over 55% in size.
Potency means the concentration at half of the fitted maximal effect; tags describe the fitted curve by direction and shape.

Sequence of UniProt P10636 (P10636 whole entry, looked up): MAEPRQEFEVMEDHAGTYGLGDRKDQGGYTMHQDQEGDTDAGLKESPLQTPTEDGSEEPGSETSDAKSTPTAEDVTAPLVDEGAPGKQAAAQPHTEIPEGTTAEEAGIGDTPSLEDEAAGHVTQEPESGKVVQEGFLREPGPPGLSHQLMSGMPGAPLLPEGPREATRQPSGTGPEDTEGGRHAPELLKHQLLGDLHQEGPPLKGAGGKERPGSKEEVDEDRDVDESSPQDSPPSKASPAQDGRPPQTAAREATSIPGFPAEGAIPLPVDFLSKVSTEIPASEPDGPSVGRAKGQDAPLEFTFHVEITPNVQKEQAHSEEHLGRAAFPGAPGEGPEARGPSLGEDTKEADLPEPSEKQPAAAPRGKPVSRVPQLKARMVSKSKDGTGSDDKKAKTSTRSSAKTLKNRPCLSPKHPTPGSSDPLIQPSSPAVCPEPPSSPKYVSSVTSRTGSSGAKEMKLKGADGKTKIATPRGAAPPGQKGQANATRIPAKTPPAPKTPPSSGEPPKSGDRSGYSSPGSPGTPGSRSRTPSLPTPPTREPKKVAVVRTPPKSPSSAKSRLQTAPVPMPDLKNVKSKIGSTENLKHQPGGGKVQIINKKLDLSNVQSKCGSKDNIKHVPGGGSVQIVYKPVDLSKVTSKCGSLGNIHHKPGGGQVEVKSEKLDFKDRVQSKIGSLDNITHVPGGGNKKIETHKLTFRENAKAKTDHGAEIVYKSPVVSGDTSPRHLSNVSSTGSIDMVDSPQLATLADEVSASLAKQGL

Structure (SMILES)	Potency
COc1ccc(NC(=O)Nc2nc3ccccc3s2)cc1	inconclusive [inhibitor, single point]
COc1ccc(-n2c3c(cc(-c4nc(-c5ccc(C)cc5)cs4)c2=O)C(=O)CC(C)(C)C3)cc1	inconclusive [inhibitor, partial curve]
CCOC(=O)CSc1n[nH]c(=S)s1	inactive
O=C(Nc1nccs1)c1cc(-c2ccccc2)nn1-c1ccccc1	inactive
CSCCC(NC(=O)c1ccc(Cl)cc1)C(=O)OCC(=O)Nc1cc(Cl)ccc1C#N (configuration not stated)	inconclusive [inhibitor, single point]
COC(C(=O)Nc1ccc(S(=O)(=O)Nc2ccc(C)c(C)c2)cc1)c1ccccc1 (configuration not stated)	inconclusive [inhibitor, partial curve, poor fit]
CCOc1ccc(-c2nnc(SCC(=O)N(CC)CC)n2N)cc1	inconclusive [inhibitor, single point]
Cc1ccc(S(=O)(=O)Nc2nsc(N)n2)cc1	active: 17.8 µM
CC(=O)Nc1ccc(NC(=O)C2CCCN2/C=C/C(=O)C(F)(F)F)cc1 (configuration not stated)	inactive
O=S(=O)(Nc1ccc(Br)cc1F)c1ccc2nc(-c3ccccc3)[nH]c2c1	active: 14.1 µM
C#CCOCCOCCOCCNc1nc(N2CCN(C(=O)[C@H](CCC(=O)O)n3cc(C(N)[C@H](C)CC)nn3)CC2)nc(N2CCN(C(=O)[C@H](Cc3ccc(O)cc3)n3cc(C(N)[C@H](C)CC)nn3)CC2)n1 (some centres not stated)	inconclusive [inhibitor, single point]
O=C(CCS(=O)(=O)c1cccc2nonc12)Nc1c(F)cccc1F	inactive
CCN(CC)CCCN=Cc1c(-c2ccccc2)[nH]n(-c2nc3ccccc3s2)c1=O	inactive
COc1ccc(-c2nnc(SCC(=O)Nc3cccc(C(F)(F)F)c3)nc2-c2ccc(OC)cc2)cc1	inconclusive [inhibitor, single point]
O=C(Nc1cc(S(=O)(=O)N2CCOCC2)ccc1N1CCCC1)c1cnccn1	inconclusive [inhibitor, partial curve, poor fit]
Nc1nc(Nc2ccccc2)nc2c1ncn2[C@@H]1O[C@@H](CO)[C@H](O)[C@H]1O	inactive
CN(CCCNC(=O)c1cc2c(Cl)nc3ccccc3c2s1)Cc1ccccc1	inconclusive [inhibitor, partial curve, poor fit]
Oc1c(N=NC(=S)Nc2ccccc2F)c2ccccc2n1Cc1cccc(Cl)c1	inconclusive [activator, single point]
Cc1cccc(C)c1OCC(=O)Nc1ncn[nH]1	inconclusive [inhibitor, single point]
O=C(NCCc1ccccc1)c1ccc2c(c1)N(Cc1ccc(F)cc1)C(=O)c1ccccc1S2(=O)=O	inconclusive [inhibitor, partial curve]
Cc1cccc(N(CC(O)Cn2c3ccccc3c3ccccc32)S(=O)(=O)c2ccc(F)cc2)c1 (configuration not stated)	inconclusive [inhibitor, partial curve]

Structure (SMILES)	Potency
CC(=O)c1cccc(NC(=O)C(C)n2c(=O)cc(C)c3c(C)nn(-c4ccccc4)c32)c1 (configuration not stated)	inconclusive [inhibitor, partial curve]
C=CCOc1c(CNc2ccc(S(N)(=O)=O)cc2)cccc1OC	inactive
O=C(CSc1nc2ccccc2o1)Nc1nc(-c2ccccc2)cs1	inconclusive [inhibitor, single point]
Cc1nn(-c2ccccc2)c(N2CCCC2)c1/C=N/Nc1ccc(S(N)(=O)=O)cc1[N+](=O)[O-]	inactive
Cc1cc(NC(=O)CSc2nnc(-c3c[nH]c4ccccc34)n2-c2ccc(Cl)cc2)no1	inconclusive [inhibitor, partial curve]
O=C1C(Cl)=C(Nc2ccc(O)cc2)C(=O)c2ccccc21	active: 3.55 µM
CCOC(=O)c1c(NS(=O)(=O)c2cccc(OC)c2)sc2c1CCC2	inactive
COc1ccnc(CS(=O)c2nc3ccc(OC(F)F)cc3[nH]2)c1OC (configuration not stated)	inconclusive [inhibitor, partial curve]
CC(=O)N1N=C(c2ccco2)CC1c1cccs1 (configuration not stated)	inconclusive [inhibitor, single point]
Cc1cc(-c2ccccc2)n2ncnc2n1	inconclusive [activator, full curve, poor fit]
COc1ccc(C(=O)Nc2cccc(C(=O)OCc3cc(=O)n4c5c(sc4n3)CCCC5)c2)cc1	inconclusive [inhibitor, partial curve, poor fit]
O=C(c1n[nH]c2ccccc12)N1CCN(S(=O)(=O)c2ccc3ccccc3c2)CC1	inconclusive [inhibitor, partial curve]
Cc1ccc(CCNC(=O)c2ccc(Nc3nc4ccccc4n4nnnc34)cc2)cc1	inconclusive [inhibitor, partial curve]
COc1ccc2oc(/C=C/N(C)C)c(C(=O)c3ccc(Cl)cc3)c2c1	inactive
O=C(CSc1c[nH]c2ccccc12)NCC1CCCO1 (configuration not stated)	inactive
CCCCCN1C(C(=O)c2ccccc2)=C(OC(=O)CC)c2ccccc2S1(=O)=O	inconclusive [activator, single point]
COc1cccc(/C=C/c2nc(C#N)c(N3CCN(C)CC3)o2)c1	inactive
O=C(NCCO)c1ccc2nc(-c3ccco3)c(-c3ccco3)nc2c1	inconclusive [inhibitor, partial curve]
CCC(Sc1nc2n[nH]c(C)c2c(=N)n1-c1ccccc1Cl)C(=O)N(CC)CC (configuration not stated)	inconclusive [inhibitor, single point]
O=C(NCCc1ccc(Cl)cc1)C1CCN(S(=O)(=O)c2ccc3[nH]ccc3c2)CC1	inconclusive [inhibitor, single point]
CCOC(=O)C(CC)Sc1nc2c(c(=O)[nH]c(=O)n2C)n1C/C=C(/C)Cl (configuration not stated)	inactive
